# Test results published in the supplement of paper PMC8728848.
# The other results are listed elsewhere or left out.
# B1: LICBM33A (Lactococcus lactis), Q9CE94 (protein)
# chain: MKKLLTGLLVAAGLLSVSLLIKTDTVSAHGYVQSPPARGYQGQLDSQSLGWTAAFNIYGNVISNPQSLEAPKGFPECGPADGRIASANGGLGQIGDFVLDNQTSSRWKKTSISTGSNIFTWKYTAPHKTTKWHYYMTKTGWDQNAPLKHSELELIGTINHDGSPATNNLSHTINIPTDRSGYHIVLAVWDVADTSNAFYNVIDINVNNKNASSQVFGPFL
# What was measured:
# Assay in all cases: glycan array binding signal (z-score within array); higher = stronger binding
# Settings in all cases: glycan notation: IUPAC condensed, linker removed
# [1] = biological target: Fuc(a1-2)Gal
# How it was run: (§1)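 Negative Z-scores can be read as non-binding. The Z-score is calculated within each array and then averaged across arrays of one protein sequence at different concentrations or buffers and across linkers. Arrays, 3228 in all, were curated from the Consortium for Functional Glycomics database and kept only where the protein sequence was available.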
# [2] = biological target: Fuc(a1-2)Gal(b1-3)GalNAc
# How it was run: as §1
# [3] = biological target: Fuc(a1-2)Gal(b1-3)GalNAc(a1-3)[Fuc(a1-2)]Gal(b1-4)Glc
# How it was run: as §1
# [4] = biological target: Fuc(a1-2)Gal(b1-3)GalNAc(a1-3)[Fuc(a1-2)]Gal(b1-4)GlcNAc
# How it was run: as §1
# [5] = biological target: Fuc(a1-2)Gal(b1-3)GalNAc(b1-3)Gal
# How it was run: as §1
# [6] = biological target: Fuc(a1-2)Gal(b1-3)GalNAc(b1-3)Gal(a1-4)Gal(b1-4)Glc
# How it was run: as §1
# [7] = biological target: Fuc(a1-2)Gal(b1-3)GalNAc(b1-4)[Neu5Ac(a2-3)]Gal(b1-4)Glc
# How it was run: as §1
# [8] = biological target: Fuc(a1-2)Gal(b1-3)GlcNAc
# How it was run: as §1
# [9] = biological target: Fuc(a1-2)Gal(b1-3)GlcNAc(b1-2)Man(a1-3)[Fuc(a1-2)Gal(b1-3)GlcNAc(b1-2)Man(a1-6)]Man(b1-4)GlcNAc(b1-4)GlcNAc
# How it was run: as §1
# [10] = biological target: Fuc(a1-2)Gal(b1-3)GlcNAc(b1-2)Man(a1-3)[Fuc(a1-2)Gal(b1-3)GlcNAc(b1-2)Man(a1-6)]Man(b1-4)GlcNAc(b1-4)[Fuc(a1-6)]GlcNAc
# How it was run: as §1
# [11] = biological target: Fuc(a1-2)Gal(b1-3)GlcNAc(b1-3)Gal(b1-4)Glc
# How it was run: as §1
# [12] = biological target: Fuc(a1-2)Gal(b1-3)GlcNAc(b1-3)GalNAc
# How it was run: as §1
# [13] = biological target: Fuc(a1-2)Gal(b1-3)GlcNAc(b1-3)[Fuc(a1-2)Gal(b1-3)GlcNAc(b1-6)]GalNAc
# How it was run: as §1
# [14] = biological target: Fuc(a1-2)Gal(b1-3)GlcNAc(b1-3)[Gal(b1-4)GlcNAc(b1-6)]Gal(b1-4)Glc
# How it was run: as §1
# [15] = biological target: Fuc(a1-2)Gal(b1-3)GlcNAc(b1-3)[Neu5Ac(a2-6)Gal(b1-4)GlcNAc(b1-6)]Gal(b1-4)Glc
# How it was run: as §1
# [16] = biological target: Fuc(a1-2)Gal(b1-3)GlcNAc6S
# How it was run: as §1
# [17] = biological target: Fuc(a1-2)Gal(b1-3)[Fuc(a1-4)]GlcNAc
# How it was run: as §1
# [18] = biological target: Fuc(a1-2)Gal(b1-3)[Fuc(a1-4)]GlcNAc(b1-2)Man(a1-3)[Fuc(a1-2)Gal(b1-3)[Fuc(a1-4)]GlcNAc(b1-2)Man(a1-3)]Man(b1-4)GlcNAc(b1-4)GlcNAc
# How it was run: as §1
# [19] = biological target: Fuc(a1-2)Gal(b1-3)[Fuc(a1-4)]GlcNAc(b1-2)Man(a1-3)[Fuc(a1-2)Gal(b1-3)[Fuc(a1-4)]GlcNAc(b1-2)Man(a1-6)]Man(b1-4)GlcNAc(b1-4)[Fuc(a1-6)]GlcNAc(b1-4)[Fuc(a1-6)]GlcNAc
# How it was run: as §1
# [20] = biological target: Fuc(a1-2)Gal(b1-3)[Fuc(a1-4)]GlcNAc(b1-3)[Fuc(a1-3)[Gal(b1-4)]GlcNAc(b1-6)]Gal(b1-4)Glc
# How it was run: as §1
# [21] = biological target: Fuc(a1-2)Gal(b1-3)[Fuc(a1-4)]GlcNAc(b1-3)[Gal(b1-4)GlcNAc(b1-6)]Gal(b1-4)Glc
# How it was run: as §1
# [22] = biological target: Fuc(a1-2)Gal(b1-4)Fuc(a1-3)]GlcNAc(b1-2)Man(a1-3)[Fuc(a1-2)Gal(b1-4)[Fuc(a1-3)]GlcNAc(b1-2)Man(a1-6)]Man(b1-4)GlcNAc(b1-4)GlcNAc
# How it was run: as §1
# [23] = biological target: Fuc(a1-2)Gal(b1-4)Glc
# How it was run: as §1
# [24] = biological target: Fuc(a1-2)Gal(b1-4)Glc6S
# How it was run: as §1
# [25] = biological target: Fuc(a1-2)Gal(b1-4)GlcNAc
# How it was run: as §1
# [26] = biological target: Fuc(a1-2)Gal(b1-4)GlcNAc(b1-2)Man
# How it was run: as §1
# [27] = biological target: Fuc(a1-2)Gal(b1-4)GlcNAc(b1-2)Man(a1-3)[Fuc(a1-2)Gal(b1-4)GlcNAc(b1-2)Man(a1-6)]Man(b1-4)GlcNAc(b1-4)GlcNAc
# How it was run: as §1
# [28] = biological target: Fuc(a1-2)Gal(b1-4)GlcNAc(b1-2)Man(a1-3)[Fuc(a1-2)Gal(b1-4)GlcNAc(b1-2)Man(a1-6)]Man(b1-4)GlcNAc(b1-4)[Fuc(a1-6)]GlcNAc
# How it was run: as §1
# [29] = biological target: Fuc(a1-2)Gal(b1-4)GlcNAc(b1-2)[Fuc(a1-2)Gal(b1-4)GlcNAc(b1-4)]Man(a1-3)[Fuc(a1-2)Gal(b1-4)GlcNAc(b1-2)Man(a1-6)]Man(b1-4)GlcNAc(b1-4)GlcNAc
# How it was run: as §1
# [30] = biological target: Fuc(a1-2)Gal(b1-4)GlcNAc(b1-3)Gal(b1-4)GlcNAc
# How it was run: as §1
binder,measurement,setting,value
B1,glycan array binding signal (z-score),[1],0.396
same,glycan array binding signal (z-score),[2],-0.051
same,glycan array binding signal (z-score),[3],-0.534
same,glycan array binding signal (z-score),[4],-0.968
same,glycan array binding signal (z-score),[5],-0.451
same,glycan array binding signal (z-score),[6],0.488
same,glycan array binding signal (z-score),[7],-0.276
same,glycan array binding signal (z-score),[8],-0.947
same,glycan array binding signal (z-score),[9],-1.27
same,glycan array binding signal (z-score),[10],-0.329
same,glycan array binding signal (z-score),[11],0.456
same,glycan array binding signal (z-score),[12],-0.484
same,glycan array binding signal (z-score),[13],0.347
same,glycan array binding signal (z-score),[14],0.055
same,glycan array binding signal (z-score),[15],-0.364
same,glycan array binding signal (z-score),[16],1.3
same,glycan array binding signal (z-score),[17],-0.377
same,glycan array binding signal (z-score),[18],0.001
same,glycan array binding signal (z-score),[19],0.884
same,glycan array binding signal (z-score),[20],-0.844
same,glycan array binding signal (z-score),[21],-0.224
same,glycan array binding signal (z-score),[22],-0.901
same,glycan array binding signal (z-score),[23],0.23
same,glycan array binding signal (z-score),[24],1.25
same,glycan array binding signal (z-score),[25],0.162
same,glycan array binding signal (z-score),[26],-0.573
same,glycan array binding signal (z-score),[27],-0.636
same,glycan array binding signal (z-score),[28],0.363
same,glycan array binding signal (z-score),[29],6.68
same,glycan array binding signal (z-score),[30],3.32
